{
  "source": "patent US20120003694A1",
  "about": "(SYRACUSE UNIVERSITY, published 2012)",
  "binders": {"B1": {"name": "FhuA ΔC/Δ4L protein nanopore (engineered Escherichia coli ferric hydroxamate uptake component A lacking the cork domain and loops L3, L4, L5 and L11) (other)", "chain": "LKEVQFKAGTDSLFQTGFDFSDSLDDDGVYSYRLTGLARSANAQQKGSEEQRYAIAPAFTWRPDDKTNFTFLSYFQNEPETGNSEGSTYSRNEKMVGYSFDHEFNDTFTVRQNLRFAENKTSQNSVYGYGVNSEGSYLARKYVVDDEKLQNFSVDTQLQSKFATGDIDHTLLTGVDFMRMRNDINAWFGYNSEGSGPYRILNKQKQTGVYVQDQAQWDKVLVTLGGRYDWADQESLNRVAGTTDKRDDKQFTWRGGVNYLFDNGVTPYFSYSESFEPSSQVGKDGNIFAPSKGKQYEVGVKYVPEDRPIVVTGAVYNLTKTNNLMADPEGSFFSVEGGEIRARGVEIEAKAALSASVNVVGSYTYTDAEYTTDTTYKGNTPAQVPKHMASLWADYTFFDGPLSGLTLGTGGRYTGSSYGDPANSFKVGSYTVVDALVRYDLARVGMAGSNVALHVNNSEGSQVVATATFRF"}},
  "key": {"[1]": {"biological_target": "T1, pb2(95)-Ba (barnase fused to the first 95 amino acids of the N-terminal region of pre-cytochrome b2) (UniProt P00175 1-95; P00648 48-157)", "T1 construct": "range 1-95;domain: folded ribonuclease barnase (Ba), 110-residue", "T1 sequence": "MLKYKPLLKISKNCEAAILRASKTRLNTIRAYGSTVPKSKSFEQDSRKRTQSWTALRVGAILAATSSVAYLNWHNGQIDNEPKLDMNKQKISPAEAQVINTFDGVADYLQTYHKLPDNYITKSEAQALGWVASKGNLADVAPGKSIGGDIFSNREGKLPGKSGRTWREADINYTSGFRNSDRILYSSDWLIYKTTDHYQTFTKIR"}, "[2]": {"biological_target": "T2, pb2(65)-Ba (barnase fused to the first 65 amino acids of the N-terminal region of pre-cytochrome b2) (UniProt P00175 1-65; P00648 48-157)", "T2 construct": "range 1-65;domain: folded ribonuclease barnase (Ba), 110-residue", "T2 sequence": "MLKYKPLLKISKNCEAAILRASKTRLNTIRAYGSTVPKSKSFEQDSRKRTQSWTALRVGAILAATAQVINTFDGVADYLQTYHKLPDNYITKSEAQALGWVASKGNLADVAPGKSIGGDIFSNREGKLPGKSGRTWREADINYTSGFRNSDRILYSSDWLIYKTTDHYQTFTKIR"}},
  "data": [
    {"binder": "B1", "values": [
      {"measurement": "koff", "setting": "[1]", "value": 3000, "unit": "s⁻¹"},
      {"measurement": "kon", "setting": "[1]", "value": 280000, "unit": "M⁻¹ s⁻¹"},
      {"measurement": "koff", "setting": "[2]", "value": 9000, "unit": "s⁻¹"},
      {"measurement": "kon", "setting": "[2]", "value": 200000, "unit": "M⁻¹ s⁻¹"}
    ]}
  ]
}
